The list shows a part of the results. At the low end of the ranking the order means little. The protein was read in a cell extract, so binding may be indirect.
Molecular target: T1, HNF4alpha2 (COS-7 nuclear extract) (UniProt P41235)
T1 sequence: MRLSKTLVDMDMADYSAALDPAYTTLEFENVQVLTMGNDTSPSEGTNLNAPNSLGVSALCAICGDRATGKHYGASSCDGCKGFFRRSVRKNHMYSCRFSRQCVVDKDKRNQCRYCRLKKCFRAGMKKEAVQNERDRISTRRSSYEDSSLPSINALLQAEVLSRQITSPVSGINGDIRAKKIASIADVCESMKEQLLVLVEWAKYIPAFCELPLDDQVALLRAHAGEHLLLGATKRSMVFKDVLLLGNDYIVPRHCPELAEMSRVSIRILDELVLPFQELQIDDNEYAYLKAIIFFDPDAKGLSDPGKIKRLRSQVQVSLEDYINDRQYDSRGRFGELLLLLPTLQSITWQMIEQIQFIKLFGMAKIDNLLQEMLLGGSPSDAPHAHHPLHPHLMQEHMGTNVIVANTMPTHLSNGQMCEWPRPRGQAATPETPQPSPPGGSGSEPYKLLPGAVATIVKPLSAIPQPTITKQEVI
Assay: protein-binding microarray
Settings: COS-7 nuclear extract on double-stranded Agilent 4x180k PBM; binding buffer, salt, pH and temperature not given; high values mean tight binding; double strand, one strand shown; sequences stand for … in …GCCTAGGGAGATTAGAGTATCGGTCGA

Sequence | binding signal (log2 normalized intensity)
CCCAAGCGAATATGTCAGGCTCAGGGACCC | -1
CATGTGGTCCTAAGACTAACCTTTGACCAT | 7.89
CATGACCTTTGGACTGTGACCCCACCTCTC | 7.45
GGAAGATGCCTTTTTAGTGCAAGCAAAATT | -0.731
GGTGGAGGCAGCAGCTCCAATTAGGAGATC | -1.13
AAAGTCCATATTCTTTGTTTGGATGCCAAA | 1.58
GGACTTTGGCCTTACTTGGCCTGTTTGCTG | 5.51
TCTCTGGCTTGATCCCTGAACTTTGCTCCC | 7.97
CTGTGTTCTCTCAACCTCTCTGGGGGATGG | 2.16
TTCTCTCTTGGACTCTTGGACTCCCTGAAG | 4.75
TAACTGTGGGTTCTAGGTAATCACCCTCTC | 0.526
GTTTGGTGTTTAATTTTCAACCTCTTTCTC | 1.6
GATTAGAGACCTCTAGACTCCAGCTAAAGC | -1.16
GAGTTCCAAAGTCCATGTTCATAACTGTTA | 4.7
CTGCTCTCAGCTCCTAAAGGCAGCCCCTTA | -1.09
GTGGAGACACTGCCAGTGTCTCAGGGAGCT | -1.16
TTCAAAGAAGCTGTTGGAAAGGGCACTGAT | 0.625
AGCATATGTTGACCCGAGTGCCCTTTGGCA | 4.66

Sequence | binding signal (log2 normalized intensity)
TCTGGCCTGACCCCCTCCTCACCCCACTTT | 5.14
CGTGGTGGATGGGGGAGGGGACTTCGCTGG | -1.08
TGTTATCTTTTCAAGGATGTTTATACAGCC | 1.74
AAGTCTTTGTTCCTAGCCACCATGCTCGGC | -1.08
GATGAATCCACAAAGATAAGAAAAAAACAG | -1.09
TAAACCTAGCTACTAGCCATTTCGGCACCT | -1.19
AACTATGTTTATCAGAGCAAAGTTCAATTT | 4.17
CTTTAATTACCTGTTCTAAGCACCTCTGCT | -1.05
ATTCAATGTTTGGGAGCCTTGCACACTCGC | -0.773
CCTCCAACTATTGCTCAGCAGGGAGATGGA | -1.12
GAGTTCAGATCACAAAGGAGCTTGTAAGCC | -1.11
AGCTGTTACTCATTCCCAGGTCGGGCCGGA | -0.477
TTCAGGAAGGCCTGTTAAAAACACGAGCTA | -1.18
CCAGTTCACTCAGTCCACATGGTGTCTTTT | 1.7
TTTATTTGAAGAAATGGTGGACTTTGTAGC | 5.6
TGGTCATGGAGGGAACAAAACTTCACCTCC | -1.11
TTTTCCCCCTTTGAAGTCTGCCCTCCATGT | 4.6
TTGAACACCACAAGTTTGAACTGCACAGGC | -0.333
